From PubChem BioAssay AID1346428 (National Center for Advancing Translational Sciences (NCATS), 2018)
Values joined by “and” are separate entries in the source; they are usually repeats but may differ in a detail not shown here. Identical values can stand only once. Hit rate of the full screen: of about 48,000 compounds, about 1,200 (2.5%) were called active. Not shown: some 2% with an inconclusive outcome.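 How the source made its calls: active means activation of at least 60% and not above a set upper limit (about 1 call in 100 departs from these limits); inconclusive means activation of 40% to 60%, or above that upper limit; inactive means activation under 40%.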 Some of the results follow.

biological target: Probable G-protein coupled receptor 32 (Homo sapiens) (UniProt O75388); test: qHTS for Agonists of Human Resolvin D1 Receptor DRV1; details: CHO-K1 GPR32 beta-arrestin PathHunter luminescence, 90 min; at 76.9 µM; active compounds read high; zero percent set by DMSO-only wells; further: 0% is about no effect
Sequence of UniProt O75388 (O75388 whole entry, looked up): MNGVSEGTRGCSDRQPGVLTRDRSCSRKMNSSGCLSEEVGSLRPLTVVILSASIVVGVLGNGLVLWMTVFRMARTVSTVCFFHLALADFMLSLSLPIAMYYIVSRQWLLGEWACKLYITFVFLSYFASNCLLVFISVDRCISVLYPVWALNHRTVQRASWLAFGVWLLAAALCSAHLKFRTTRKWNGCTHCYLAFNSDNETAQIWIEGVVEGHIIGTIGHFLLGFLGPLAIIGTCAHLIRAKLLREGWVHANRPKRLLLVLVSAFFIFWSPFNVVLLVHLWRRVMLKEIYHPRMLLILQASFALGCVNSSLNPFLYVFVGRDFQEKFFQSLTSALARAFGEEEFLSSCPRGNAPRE
How it was run: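 Step 1: seed CHO-K1 GPR32 beta-arrestin cells, 2,500/well, overnight at 37 °C. Step 2: add compounds, 90 min at 37 °C. Step 3: detection reagent, 1 h ambient, then luminescence.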

| Structure (SMILES) | activation |
| --- | --- |
| Cc1ccc(C)c(S(=O)(=O)c2nnn3c2nc(NC2CCCCC2)c2sccc23)c1 | inactive: -19.7% |
| N#C/C(=C\c1ccc(O)c(O)c1)C(=O)NCCCNC(=O)/C(C#N)=C/c1ccc(O)c(O)c1 | inactive: -32.1% |
| O=C(NCCc1ccccc1)C1CCC(CNS(=O)(=O)c2ccc(Cl)cc2)CC1 (centres undefined) | inactive: -11.9% |
| Cc1ccc(C)c(N2CCN(C(=O)NCc3noc4ccc(C)cc34)CC2)c1 | inactive: -14.3% |
| Cc1ccccc1Cn1c2ccccc2c2cnn(CC(=O)NCc3ccccn3)c(=O)c21 | inactive: 26.1% |
| CCSc1ccccc1C(=O)Nc1ccc(-c2nc3ccccc3s2)c(O)c1 | inactive: -2.62% |
| CCOc1ccc(C(=O)NC2CC(=O)N(c3ccc(C)cc3)C2)cc1OCC (centres undefined) | inactive: -1.04% |
| O=C(OCc1ccccc1)c1ccccc1 | inactive: 19.2% |
| CCOC(=O)c1cccc(NC(=O)C2Cc3ccccc3N2C(=O)c2ccccc2)c1 (centres undefined) | inactive: 9.91% |
| CC1CCN(S(=O)(=O)c2ccc3c(ccn3CCC(=O)NCc3ccccc3F)c2)CC1 | inactive: -16.4% |
| Cc1ccc(Nc2nc3ccccc3c3nncn23)c(Cl)c1 | inactive: -1.99% |
| Cc1ccc(-c2nc(NC(=O)CSc3nc(C)nc4sc5c(c34)CCCC5)ns2)cc1 | inactive: -5.8% |
| Cc1ccccc1CNC(=O)CN1C(=O)C2CCCCN2c2ccc(C(=O)N3CCCC3)cc21 (centres undefined) | inactive: -13.9% |
| CCc1nn(CC(=O)N2CCCCC2)c(=O)c2cc3sc(C)cc3n12 | inactive: -9.94% |
| Cc1ccccc1NC(=O)CCS(=O)(=O)c1cc(Br)cc2c1N(C(=O)C1CC1)CC2 | inactive: -3.14% |
| Cc1ccc(C)c(Cn2c(=O)n(C(C)C)c(=O)c3oc4ccccc4c32)c1 | inactive: -3.11% |
| Cc1cccc(-n2ncc3c(Nc4ccc(C)c(Cl)c4)ncnc32)c1 | active: 73.7% |
| COc1ccc(NC(=O)c2c(-c3ccccc3)c(-c3ccccc3)nn(C)c2=O)cc1OC | inactive: -18.7% |
| Cc1sc2c(c1C)c(=O)n(Cc1ccccc1)c(=O)n2Cc1ccc(F)cc1 | inactive: 1.87% |
| O=C(Nc1ccc2c(c1)N(C1CCCC1)C(=O)c1ccccc1S2)c1ccccc1F | inactive: -5.69% |
| O=C(Nc1sc2c(c1C(=O)NCc1cccnc1)CCCC2)c1cc(=O)c2ccccc2o1 | inactive: 1.05% |

| Structure (SMILES) | activation |
| --- | --- |
| Cc1ccc2nc(COc3ccccc3NC(=O)C(C)(C)C)cc(=O)n2c1 | inactive: -1.7% |
| CCOc1ccc(C2CC(c3c(O)n(C4CCCCC4)c(=O)[nH]c3=O)=Nc3ccccc3S2)cc1 (centres undefined) | inactive: -0.318% |
| COc1cccc(CNC(=O)c2ccc(-c3nc(COc4ccccc4)c(C)o3)cc2)c1 | inactive: -2.12% |
| Cc1ccc(CCNC(=O)c2cc3c(s2)-c2c(C)cccc2OC3)cc1 | inactive: -0.0658% |
| CCOC(=O)N1CCc2c(sc3c2c(=O)n(-c2ccccc2C(F)(F)F)c(=O)n3Cc2ccccc2C)C1 | inactive: -22.8% |
| O=C(Cc1ccc(F)cc1)NCc1ccc2c(c1)CCN2C(=O)c1ccc(F)cc1 | inactive: -13.1% |
| Cc1ccc(NS(=O)(=O)c2ccc(-n3cccn3)cc2)cc1Cl | active: 73.2% |
| O=C(CSc1nnc2ccc3ccccc3n12)Nc1ccccc1Cl | inactive: -9.47% |
| COc1cccc(-n2c(SCC(=O)Nc3c(C)cc(C)cc3C)nc3c([nH]c4ccccc43)c2=O)c1 | inactive: 10.4% |
| COC(=O)c1cc2oc3ccccc3c2n1CC(=O)Nc1ccc(Cl)cc1F | inactive: 43.5% |
| COc1cccc2c1cc1c(=O)n(CC(=O)NCc3ccc(C)o3)nc(C)n12 | inactive: -18% |
| O=C(COc1ccc(Cl)cc1)Nc1ccc2nc(SCC(=O)N3CCCC3)sc2c1 | inactive: -6.41% |
| COc1ccc(OC)c(NC(=O)CSc2ccc(-c3sc(C)nc3C)nn2)c1 | inactive: 4.27% |
| Cc1cccc(-c2nc(CCNC(=O)Cc3ccccc3)cs2)c1 | inactive: -13% |
| COc1ccc(CCNC(=O)c2ccc3c(c2)N(Cc2ccc(F)cc2)C(=O)CS3)cc1OC | inactive: -11.3% |
| Cc1nn(C(=O)c2cccc(Cl)c2)c(C)c1S(=O)(=O)N1CCOCC1 | inactive: 6.13% |
| CCC(=O)N1CCc2cc(S(=O)(=O)NC(CC(C)C)C(=O)NCCc3ccccc3)ccc21 (centres undefined) | inactive: -13.3% |
| COc1ccc(CCNC(=O)C(=O)NCC(c2ccco2)S(=O)(=O)c2cccs2)cc1OC (centres undefined) | inactive: -6.03% |
| O=C(COc1ccccc1-c1nc(-c2ccccc2)no1)Nc1cccc([N+](=O)[O-])c1 | inactive: -0.578% |
| OC(CCN1CCCCC1)(c1ccccc1)C1CCCCC1 (centres undefined) | inactive: -3.53% and inactive: -1.68% |
| O=C(c1nc(-c2ccc(Cl)cc2)n2c1CCCCC2)N1CCN(c2ccccc2)CC1 | inactive: -0.801% |

| Structure (SMILES) | activation |
| --- | --- |
| CCOC(=O)c1cc(-c2ccc(F)cc2)n(CC(=O)NC2CCCCCC2)c1C | inactive: -13% |
| Cc1nc2sccn2c(=O)c1S(=O)(=O)Nc1cc(Cl)ccc1O | inactive: -19.9% |
| CCCCN1CCc2nc(Nc3ccc(OC)cc3OC)ncc2C1 | inactive: -2.87% |
| COc1ccc(NC(=O)c2c(NC(=O)COc3ccccc3)sc3c2CCC(C(C)(C)C)C3)cc1 (centres undefined) | inactive: 3.79% |
| Cc1ccc(CN(Cc2ccco2)C(=O)c2ccc(OCC(C)C)cc2)cc1 | inactive: -19.9% |
| Cc1ccc2c(c1)N(C(=O)N1CCC(C(=O)NCCc3ccc(Cl)cc3)CC1)CC(C)O2 (centres undefined) | inactive: -7.6% |
| Cc1ccc(C)c(N2CCN(C(=O)c3cc4c(=O)n(Cc5ccccc5)ccc4nc3C)CC2)c1 | inactive: 1.99% |
| Cc1ccc(-n2nc(C)c3c(C)c(CCC(=O)NCc4ccccc4Cl)c(C)nc32)cc1C | inactive: 4.34% |
| CCOc1cccc2c1N[C@@H](c1ccc(C(=O)O)cc1)[C@H]1CC=C[C@@H]21 | inactive: -11.8% |
| Cc1cccc(NS(=O)(=O)c2ccc3[nH]c4c(c3c2)CCCCCC4)c1 | inactive: 6.31% |
| COc1ccc(NC(=O)C(Cc2ccccc2)NS(=O)(=O)c2ccc3c(c2)CCC(=O)N3)c(OC)c1 (centres undefined) | inactive: 14.4% |
| Cc1cccc(Cn2cccc2CNS(=O)(=O)c2ccccc2F)c1 | inactive: 19.8% |
| CCc1ccc(CNC(=O)Cn2nc(C)n3c(cc4cc(C)ccc43)c2=O)cc1 | inactive: -10.1% |
| CCc1ccc(NC(=O)CN2C(=O)C(c3ccc(C)cc3)=NC23CCCCC3)cc1 | inactive: -24.3% |
| CCOC(=O)c1cccc(NC(=O)c2cc3ccccn3n2)c1 | inactive: 13.4% |
| COc1ccc2sc(N(Cc3cccnc3)C(=O)C3CCCCC3)nc2c1 | inactive: -29.4% |
| O=C(Cn1c(=O)n(CC2CCC(C(=O)NCCc3ccccc3)CC2)c(=O)c2ccccc21)Nc1ccccc1 (centres undefined) | inactive: 0.0094% |
| CCCCOc1ccc(C2=NC(c3ccncc3)=Nc3ccc(OCC)cc3N2)cc1 | inactive: -10.7% |
| CCOc1ccccc1CNC(=O)C1CCN(c2nnc(-n3c(C)ccc3C)s2)CC1 | inactive: -27.9% |
| Cc1cc(C)n2nc(CNS(=O)(=O)c3ccc(C)c(C)c3)nc2n1 | inactive: -3.66% |
| CC(C)OCCCn1c(SCC(=O)c2ccccc2)nc2c(sc3ccccc32)c1=O | inactive: -9.33% |

| Structure (SMILES) | activation |
| --- | --- |
| Cc1ccc2c(Cl)cc(Cl)c(O)c2n1 | inactive: -29.4% |
| Cc1nn(-c2ccc(F)cc2)c(-n2cccc2)c1C(=O)NCCc1ccc(Cl)cc1 | inactive: -21.1% |
| CCN(CC)CCOC(=O)c1ccc(NC(=O)Cn2ncc3c2-c2cc(C)ccc2OC3)cc1 | inactive: 2.74% |
| O=C(C1CCN(S(=O)(=O)c2cccc3nonc23)CC1)N1CCN(c2cccc(Cl)c2)CC1 | inactive: -5.08% |
| COc1ccc(NC(=O)CSc2nc3nc(C)c(Cc4ccccc4)c(C)n3n2)cc1OC | inactive: -1.46% |
| Cc1ccc(Cn2c(=O)c3ccccc3n3c(-c4cccc(O)c4)nnc23)cc1 | inactive: -4.89% |
| CC(C)COc1ccc(C(=O)Nc2cc(-c3ccccc3)no2)cc1 | inactive: 11.4% |
| O=C(Cn1cnc2ccccc2c1=O)NCCC(=O)Nc1ccc(F)cc1 | inactive: -1.25% |
| COc1cccc(N2CCN(S(=O)(=O)c3cc(-c4cc(C)no4)ccc3C)CC2)c1 | inactive: 3.63% |
| CCCCN(CC)CCCNC(=O)Cn1ncc2c([nH]c3ccc(C)cc32)c1=O | inactive: 8.78% |
| O=c1c2cn[nH]c2nc(SCc2c(F)cccc2F)n1-c1ccc(Cl)cc1 | inactive: -20.3% |
| CCCCN1C(=O)C(O)(CC(=O)c2ccc(C)cc2C)c2cc(Br)ccc21 (centres undefined) | inactive: -3.71% |
| O=C(NCc1ccco1)c1ccc2c(c1)N(Cc1ccc(F)cc1)C(=O)c1ccccc1S2(=O)=O | inactive: -32.3% |
| CCOc1cccc(C(=O)Nc2nc3c(s2)CC(C(C)(C)C)CC3)c1 (centres undefined) | inactive: -11.9% |
| COc1ccc(N(CC(=O)N2CCN(c3ccc(F)cc3)CC2)S(=O)(=O)c2c(C)noc2C)cc1 | inactive: -7.36% |
| COc1cccc(CNC(=O)c2cc(Sc3cccc(Cl)c3)nc3ccccc23)c1 | inactive: -3.09% |
| Cc1ccc(/C=C/C(=O)Nc2ccccc2C(N)=O)o1 | inactive: 17.5% |
| COc1cc(OC)cc(-c2nc3n(n2)C(c2ccccc2)C(C(N)=O)=C(C)N3)c1 (centres undefined) | inactive: -5.43% |
| CC(=O)N1c2ccc(S(=O)(=O)Nc3ccc(Cl)cc3C)cc2CC1C (centres undefined) | inactive: -1.79% |
| COc1ccccc1NC(=O)COc1ccc(-c2nn(C)c(=O)c3ccccc23)cc1 | active: 95.1% |
| Cc1c(C(=O)N2CCOCC2)oc2c1-c1nn(CC(=O)NCc3cccc(Cl)c3)cc1CC2 | inactive: -3.51% |
